Assay results: article PMC9911399, “Two distinct binding modes provide the RNA-binding protein RbFox with extraordinary sequence specificity”
Numbering of substitutions follows the chain as printed; changes in the protein carry UniProt numbers. The list shows a part of the results.

T1: RBFOX1 RRM (Homo sapiens, UniProt Q9NWB1 109-208)
T1 sequence: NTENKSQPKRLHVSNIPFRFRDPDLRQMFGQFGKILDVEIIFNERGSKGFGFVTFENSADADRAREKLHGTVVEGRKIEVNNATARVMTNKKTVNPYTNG

B1: AGAAGAU (DNA:RNA)
RNA: GGGAGACCGGAAUUCAGAUUGUCCAGAAGAUUUAAAUCCCGUCGUAGCCACCA
DNA 1: CAATCTGAATTCCGGTCTCCC
DNA 2: TGGTGGCTACGACGGGATT
B2: CGCCGUC (DNA:RNA)
RNA: B1 RNA with A25C, A27C, A28C, A30U, U31C
DNA 1: CAATCTGAATTCCGGTCTCCC
DNA 2: TGGTGGCTACGACGGGATT
B3: AACGUGC (DNA:RNA)
RNA: B1 RNA with G26A, A27C, A28G, G29U, A30G, U31C
DNA 1: CAATCTGAATTCCGGTCTCCC
DNA 2: TGGTGGCTACGACGGGATT
B4: GCCCUUC (DNA:RNA)
RNA: GGGAGACCGGAAUUCAGAUUGUCCGCCCUUCUUAAAUCCCGUCGUAGCCACCA
DNA 1: CAATCTGAATTCCGGTCTCCC
DNA 2: TGGTGGCTACGACGGGATT
B5: CAGGCUC (DNA:RNA)
RNA: B4 RNA with G25C, C26A, C27G, C28G, U29C
DNA 1: CAATCTGAATTCCGGTCTCCC
DNA 2: TGGTGGCTACGACGGGATT
B6: AGUCUGA (DNA:RNA)
RNA: B1 RNA with A27U, A28C, G29U, A30G, U31A
DNA 1: CAATCTGAATTCCGGTCTCCC
DNA 2: TGGTGGCTACGACGGGATT
B7: UCUCGCG (DNA:RNA)
RNA: B4 RNA with G25U, C27U, U29G, U30C, C31G
DNA 1: CAATCTGAATTCCGGTCTCCC
DNA 2: TGGTGGCTACGACGGGATT
B8: UCAACUC (DNA:RNA)
RNA: B4 RNA with G25U, C27A, C28A, U29C
DNA 1: CAATCTGAATTCCGGTCTCCC
DNA 2: TGGTGGCTACGACGGGATT
B9: CAGCAAC (DNA:RNA)
RNA: B4 RNA with G25C, C26A, C27G, U29A, U30A
DNA 1: CAATCTGAATTCCGGTCTCCC
DNA 2: TGGTGGCTACGACGGGATT
B10: UCUCUCC (DNA:RNA)
RNA: B4 RNA with G25U, C27U, U30C
DNA 1: CAATCTGAATTCCGGTCTCCC
DNA 2: TGGTGGCTACGACGGGATT
B11: AAAUCUU (DNA:RNA)
RNA: B1 RNA with G26A, A28U, G29C, A30U
DNA 1: CAATCTGAATTCCGGTCTCCC
DNA 2: TGGTGGCTACGACGGGATT
B12: CCGUGUA (DNA:RNA)
RNA: B4 RNA with G25C, C27G, C28U, U29G, C31A
DNA 1: CAATCTGAATTCCGGTCTCCC
DNA 2: TGGTGGCTACGACGGGATT
B13: GCGUCGC (DNA:RNA)
RNA: B4 RNA with C27G, C28U, U29C, U30G
DNA 1: CAATCTGAATTCCGGTCTCCC
DNA 2: TGGTGGCTACGACGGGATT
B14: UGAUAUC (DNA:RNA)
RNA: B1 RNA with A25U, A28U, G29A, A30U, U31C
DNA 1: CAATCTGAATTCCGGTCTCCC
DNA 2: TGGTGGCTACGACGGGATT
B15: ACUUGGU (DNA:RNA)
RNA: B1 RNA with G26C, A27U, A28U, A30G
DNA 1: CAATCTGAATTCCGGTCTCCC
DNA 2: TGGTGGCTACGACGGGATT
B16: CUAGUGC (DNA:RNA)
RNA: B4 RNA with G25C, C26U, C27A, C28G, U30G
DNA 1: CAATCTGAATTCCGGTCTCCC
DNA 2: TGGTGGCTACGACGGGATT
B17: GUAAACG (DNA:RNA)
RNA: B1 RNA with A25G, G26U, G29A, A30C, U31G
DNA 1: CAATCTGAATTCCGGTCTCCC
DNA 2: TGGTGGCTACGACGGGATT
B18: UUUUGAU (DNA:RNA)
RNA: B1 RNA with A25U, G26U, A27U, A28U
DNA 1: CAATCTGAATTCCGGTCTCCC
DNA 2: TGGTGGCTACGACGGGATT
B19: UGCAAGA (DNA:RNA)
RNA: B1 RNA with A25U, A27C, G29A, A30G, U31A
DNA 1: CAATCTGAATTCCGGTCTCCC
DNA 2: TGGTGGCTACGACGGGATT
B20: UUAGCAA (DNA:RNA)
RNA: B1 RNA with A25U, G26U, A28G, G29C, U31A
DNA 1: CAATCTGAATTCCGGTCTCCC
DNA 2: TGGTGGCTACGACGGGATT

target: T1, RBFOX1 RRM; test: EMSA; HiTS-Eq, 1 nM pool, 10 min; buffer printed only for the single-RNA assays: 10 mM Tris pH 7.5, 150 mM NaCl, 3.4 mM EDTA, 0.001% NP-40, 30 C; settings: tags: His6 N-terminal (pET28a); label: 5' 32P
How it was run: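 Relative association constants, normalised to the cognate motif, were derived by comparing read counts of each RNA species with those of the control reaction. The RNA sequenced was the free fraction, separated by 8% native PAGE after a 10 min equilibration in 50 µL of 1 nM 5′-radiolabelled RNA (7 randomized nucleotides) with increasing concentrations of purified wild-type or mutant RbFox RRM.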

Binder | binding signal
B1 | 0.00881 KA relative to UGCAUGU
B2 | 0.0103 KA relative to UGCAUGU
B3 | 0.0114 KA relative to UGCAUGU
B4 | 0.0106 KA relative to UGCAUGU
B5 | 0.0127 KA relative to UGCAUGU
B6 | 0.0129 KA relative to UGCAUGU
B7 | 0.0139 KA relative to UGCAUGU
B8 | 0.00152 KA relative to UGCAUGU
B9 | 0.00628 KA relative to UGCAUGU
B10 | 0.00975 KA relative to UGCAUGU
B11 | 0.00238 KA relative to UGCAUGU
B12 | 0.0108 KA relative to UGCAUGU
B13 | 0.0157 KA relative to UGCAUGU
B14 | 0.0132 KA relative to UGCAUGU
B15 | 0.0153 KA relative to UGCAUGU
B16 | 0.014 KA relative to UGCAUGU
B17 | 0.00717 KA relative to UGCAUGU
B18 | 0.0185 KA relative to UGCAUGU
B19 | 0.0229 KA relative to UGCAUGU
B20 | 0.00742 KA relative to UGCAUGU
